The source of these data is paper PMC7819943, “Rice protein-binding microarrays: a tool to detect cis-acting elements near promoter regions in rice”.

The list shows a part of the results.

The assay addresses T1, OsWOX13 (Oryza sativa, UniProt Q5QMM3 1-267).
T1 sequence: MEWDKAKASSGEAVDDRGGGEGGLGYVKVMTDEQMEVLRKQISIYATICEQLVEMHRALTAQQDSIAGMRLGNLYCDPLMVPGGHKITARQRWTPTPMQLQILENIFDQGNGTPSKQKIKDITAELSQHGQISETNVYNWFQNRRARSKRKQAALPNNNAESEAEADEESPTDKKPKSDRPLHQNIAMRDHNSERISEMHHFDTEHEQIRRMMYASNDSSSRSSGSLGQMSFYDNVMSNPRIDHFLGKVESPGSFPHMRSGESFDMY
Briefly: protein-binding microarray (RPBM); PBS, 2% BSA, 51.3 ng/ul salmon testes DNA, 50 uM zinc acetate, 200 nM TF, 25 C, 1 h; high values mean tight binding. Particulars: protein: recombinant; tags: N-terminal polyhistidine and DsRed monomer fusion (pET32a); label: CyDye5-dUTP incorporated in the synthesized complementary strand; 3' TTTTT single-stranded linker to array surface; dsDNA, one strand shown. In a few lines: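 Binding signal is defined as the fluorescence intensity of each feature in arbitrary units, read on an Axon 4000B scanner. Transcription factors with N-terminal polyhistidine and DsRed fusions came from E. coli BL21-CodonPlus and were purified on Ni–NTA. They were incubated at 200 nM for 1 h at 25 °C on a custom Agilent array that had been made double-stranded with Cy5-dUTP, with 50 µM zinc acetate present, and the array was washed.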
As to “TGTTAATGAATCTAGACTAAATAAATGTGGAAAGTGCTAGCGGAGTCACCTAGTGCAG”, the binding signal was 4760 fluorescence intensity (a.u.).
With “GTGCGGATTCCCAATTAATTCCCATTGATCTATCGTATGTCGGAGTCACCTAGTGCAG” the figure was 12300 fluorescence intensity (a.u.); with “CTTACTTCTATGTGATTTACTAACTACTTTTACATACTTTCGGAGTCACCTAGTGCAG”, 3320 fluorescence intensity (a.u.).
Consider “GCACAGTAAGTGACCTAATCAATTGTAGTTAAATCCAGATCGGAGTCACCTAGTGCAG”, for which the binding signal is 3510 fluorescence intensity (a.u.).
Take “TGCCCCAATGATTTTGTACCACAGACCAGCTCAAGTTGCCCGGAGTCACCTAGTGCAG”: the binding signal is 4400 fluorescence intensity (a.u.).
In the case of “CCAAATTAAGTGGAAATTAATTTGCAAGCTGAGAACGATGCGGAGTCACCTAGTGCAG”, the binding signal is 55000 fluorescence intensity (a.u.).
With “TGCACGTGATATACTTGATTACTTGAGGAGAGACATGATCCGGAGTCACCTAGTGCAG”, the binding signal was 10700 fluorescence intensity (a.u.).
As for “AGCAAATCTTAAGATTGACGAAGTCAGCACGGATGTTTCGCGGAGTCACCTAGTGCAG”, the binding signal was 23100 fluorescence intensity (a.u.).
As to “ATTGACAGCATGTGGTTCATCAATATAGGTCTTTCCAACACGGAGTCACCTAGTGCAG”, the binding signal is 7370 fluorescence intensity (a.u.).
Consider “CCAAATGGAATCAGGCGATTGGCTGCGGTTCCTCCTCCCTCGGAGTCACCTAGTGCAG”, for which the binding signal is 9230 fluorescence intensity (a.u.).
For “GCATGCCAGACTCCTAATTGGATTGCTCCAACTGCCTCCACGGAGTCACCTAGTGCAG” the value was 3180 fluorescence intensity (a.u.); for “AAATAATTATCATGTTTGTGTCCATTCATTAAGTCTATTCCGGAGTCACCTAGTGCAG”, 17200 fluorescence intensity (a.u.).
For the sequence “ATGGGCTTATTCAATTTATTACTAAAATCAACCATACCAACGGAGTCACCTAGTGCAG”, the binding signal was 3300 fluorescence intensity (a.u.).
With “CATAGATTGTGTGTAAATTGCGAGACGAATCTTTTAAGCCCGGAGTCACCTAGTGCAG”, the binding signal is 33300 fluorescence intensity (a.u.).
Turning to “TAAAACTTTATTAATTATATTATGAGTTAATGGACTACCTCGGAGTCACCTAGTGCAG”, the binding signal was 23900 fluorescence intensity (a.u.).
On to “AGTTAATTAATTACCAAGGACAAAGGTTACGATATTTAAACGGAGTCACCTAGTGCAG”, for which the binding signal was 20600 fluorescence intensity (a.u.).
Take “GATTCGCTGATCAATCATTCCGTTCCCTTCGAGTGGTCTACGGAGTCACCTAGTGCAG”: the binding signal is 6160 fluorescence intensity (a.u.).
On to “AATAAAATTAAATTTTGTTAGTCAAGGGAGACACTATTTTCGGAGTCACCTAGTGCAG”, for which the binding signal is 17300 fluorescence intensity (a.u.).
As to “TCTATTATTTAATTTATTGTTAAATATACTTTTATCTATACGGAGTCACCTAGTGCAG”, the binding signal was 8300 fluorescence intensity (a.u.).
For “TTTCAATTTTATAATAATTAATCTATTCATTTCTACTCTCCGGAGTCACCTAGTGCAG”, the binding signal was 13200 fluorescence intensity (a.u.).
As to “ATAAATTATGGAAAGTCAGCGCGCGTGCAGCGGCGGCTCACGGAGTCACCTAGTGCAG”, the binding signal is 4160 fluorescence intensity (a.u.).
With “AGAGATAATTGGGAAGATTAGAAAGATACGTAAAACGAGGCGGAGTCACCTAGTGCAG”, the binding signal was 38100 fluorescence intensity (a.u.).
For the sequence “ACAGACGAAATATGTAATTTGTTTTGTTATTAGTCTACGTCGGAGTCACCTAGTGCAG”, the binding signal was 9030 fluorescence intensity (a.u.).
With “ACCTATTCAATCAAATAAAAGAATTGTTTGAACCACTTTTCGGAGTCACCTAGTGCAG” the figure was 10700 fluorescence intensity (a.u.).
For the sequence “ATTTTGACAGGGAAACTAAACCGGACCAAGATCATACGATCGGAGTCACCTAGTGCAG”, the binding signal is 22400 fluorescence intensity (a.u.).
In the case of “CTCGCTAATTGTGTAGGAGGCTAATCAGAATTTAGAACCCCGGAGTCACCTAGTGCAG”, the binding signal is 20200 fluorescence intensity (a.u.).
On to “CATACCTCTTTTGATTGATTGAAGATTGTGGGTTTTGTGTCGGAGTCACCTAGTGCAG”, for which the binding signal was 38800 fluorescence intensity (a.u.).
Turning to “AGAAGATTGTGATTAATTGAGAAGTGGAGGTAGGCAAGAACGGAGTCACCTAGTGCAG”, the binding signal is 25800 fluorescence intensity (a.u.).
Turning to “ACACAAATTTAATTAACCTTATATTCCCTGGGTATGAATGCGGAGTCACCTAGTGCAG”, the binding signal was 19200 fluorescence intensity (a.u.).
For “GACGAATCTTTTGAGCCTAATTACGCTATAATTTGACAATCGGAGTCACCTAGTGCAG”, the binding signal was 3220 fluorescence intensity (a.u.).
Regarding “ATTTCCCAATTTATTTACATGTATGCACTGACACCACAAGCGGAGTCACCTAGTGCAG”, the binding signal is 6650 fluorescence intensity (a.u.).
Regarding “CGGCTTAATTAGTCTCAAAAGATTCGTCTCGCGGTTTACACGGAGTCACCTAGTGCAG”, the binding signal was 14200 fluorescence intensity (a.u.).
With “GGCTAACATGTCTGAAATTGCCGAAGTCACAGAGTATGTACGGAGTCACCTAGTGCAG” the figure was 3270 fluorescence intensity (a.u.); with “AAATCACTATTAAATATAAATTGCTTGATATGTCAAGTACCGGAGTCACCTAGTGCAG”, 4550 fluorescence intensity (a.u.).
With “CAGAATTTGACAATTGATCAACTAAGCAAATCCTATCATCCGGAGTCACCTAGTGCAG” the figure was 14000 fluorescence intensity (a.u.).
Take “TCTAATTTTAGCGTAAACTAAACACACCCATAGTTTAGGCCGGAGTCACCTAGTGCAG”: the binding signal is 12400 fluorescence intensity (a.u.).
For the sequence “ACAACGATCTGTTTCTATCAATTTCTCAGATGGGACCTGACGGAGTCACCTAGTGCAG”, the binding signal is 3350 fluorescence intensity (a.u.).
Consider “AGGACGATATTGATTAGTACTCAACGTGACAATTGATGCACGGAGTCACCTAGTGCAG”, for which the binding signal was 27100 fluorescence intensity (a.u.).
As to “AGAATTAGCTGTGATTAACCGGTTGCATATGACATGAGGTCGGAGTCACCTAGTGCAG”, the binding signal is 12100 fluorescence intensity (a.u.).
For “TACAAATGTAACTATAGTATAATTACACTGTAATTATATACGGAGTCACCTAGTGCAG”, the binding signal was 7270 fluorescence intensity (a.u.).
For “ACTTATGATGAGTTATTAATGACAAACTCATCATCAGTTCCGGAGTCACCTAGTGCAG” the value was 11800 fluorescence intensity (a.u.).
As for “TCATGAACTGATAATTTGGATTAGTTCAAAATTTCTTGAGCGGAGTCACCTAGTGCAG”, the binding signal is 9040 fluorescence intensity (a.u.).
